This series concerns the molecule itself. Briefly: negative-stain electron microscopy with single-particle image averaging.

B1: Mouse myosin V HMM heavy chain (residues 1-1,091) (domain or fragment)
chain: not shown
As for B1, the stoichiometry N (commonly a count of units in the complex or per binding partner) amounted to 2.

These data come from publication PMC2173995 (The Journal of Cell Biology, 2002).
